In PubChem BioAssay (Tox21):
Several values for one entry are separate records, joined by “and”; a condition that tells them apart may be missing. Equal values may be shown once. The inconclusive results got no clear call from the source; some entries with a clear call stand among them for comparison. Where the call is inconclusive, the potency comes from a doubtful curve fit. The source holds several records for some structures; these can differ, active in one and inactive in another. Activity calls are given as the source filed them. Unless noted, calls come from the whole dose curve; as a rule, active = well fitted curve in the direction sought with a large enough effect in the repeat runs; inconclusive = weak or mixed curves; inactive = no such curve, though single readings can be large; an effect the other way counts as inactive or inconclusive. Peptide text beside a SMILES is read from it.

Key:
[1] = qHTS assay to identify small molecule antagonists of the progesterone receptor (PR) signaling pathway - cell viability counter screen (AID 1346798); note: nearly all actives have a fitted effect of over 50% in size
Procedure, shortened: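 Luminescence readout (CellTiter-Glo, 30 min, RT) of viability in PR-UAS-bla HEK293T cells exposed to compound and R5020 agonist for 16 hr at 37C, 5% CO2; run in the same wells as the beta-lactamase reporter read.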

[2] = qHTS assay to identify small molecule antagonists of the TGF-beta/Smad signaling pathway - cell viability counter screen (AID 1346824); note: nearly all actives have a fitted effect of over 50% in size
Procedure, shortened: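 SBE-bla HEK 293T cells, incubated overnight, then compound plus 0.25 ng/mL TGF-beta1 (stock added) for 5 hr at 37 C. Viability was read in the same wells by CellTiter-Glo luminescence after 30 min at room temperature.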

[3] = qHTS assay to identify small molecule antagonists of the TGF-beta/Smad signaling pathway (AID 1346924; active = well fitted inhibition curve with a large enough effect in the signal ratio in the repeat runs, not every such curve was filed as active; inconclusive = weak or mixed curves; the % refers to the signal ratio); conditions: SBE-bla HEK293T, TGF-beta/Smad reporter, beta-lactamase ratio; activity, negative = inhibition: at 76.8 µM (top of the series) unless noted
Procedure, shortened: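 Read-out was FRET-substrate fluorescence (405 nm excitation; 460 and 530 nm emission) after 2 h at room temperature. Before that, cells carrying a Smad-binding-element beta-lactamase reporter in HEK 293T had been stimulated 5 h at 37 C with TGF-beta1 (0.25 ng/mL addition solution) in the presence of test compound.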

[4] = Human pregnane X receptor (PXR) small molecule agonists, qHTS cell viability counter screen (AID 1346977); note: nearly all actives have a fitted effect of over 50% in size
Procedure, shortened: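 Fluorescence read-out (CellTiter-Fluor) of viability in PXR-Luc HepG2 cells, multiplexed with the luciferase agonist read. Compounds in DMSO added after 5hr plating; 24hr total exposure at 37C, 5% CO2.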

[5] = qHTS assay to identify small molecule agonists of the progesterone receptor (PR) signaling pathway - cell viability counter screen (AID 1346799; calls by dose curve; note: nearly all actives have a fitted effect of over 45% in size)
Procedure, shortened: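 HEK293T PR-UAS-bla, 3,000 cells/well, 2% charcoal-stripped FBS; 6 h settle, compound 16 h at 37C/5% CO2; LiveBLAzer 2 h RT, then CellTiter-Glo 30 min RT, luminescence read.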

[6] = qHTS assay to identify small molecule agonists of the TGF-beta/Smad signaling pathway (AID 1346859; active = well fitted activation curve with a large enough effect in the signal ratio in the repeat runs, not every such curve was filed as active; inconclusive = weak or mixed curves; the % refers to the signal ratio; for activation: % is set by controls: 0 for no effect and ±100 for the full control effect); conditions: SBE-bla HEK293T, TGF-beta/Smad beta-lactamase reporter, 5 h; activation: at 76.8 µM (top of the series)
Procedure, shortened: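 Read-out: fluorescence at 460 and 530 nm (405 nm excitation) after a 2 hr room-temperature incubation with beta-lactamase FRET substrate. SBE-bla HEK 293T cells had been treated with test compounds for 5 hr at 37 C.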

[7] = target: Progesterone receptor (Homo sapiens) (UniProt P06401); assay: qHTS assay to identify small molecule antagonists of the progesterone receptor (PR) signaling pathway (AID 1346795; active = well fitted inhibition curve with a large enough effect in the signal ratio in the repeat runs, not every such curve was filed as active; inconclusive = weak or mixed curves; the % refers to the signal ratio; for activity change, negative = inhibition: % is set by controls: 0 for no effect and ±100 for the full control effect); conditions: PR-UAS-bla HEK293T, beta-lactamase FRET ratio, 16 h; activity change, negative = inhibition: at 92.4 µM (top of the series) unless noted
Procedure, shortened: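 Beta-lactamase reporter, HEK293T PR-UAS-bla line; 2% charcoal-stripped FBS; 6 hr pre-incubation, 37C/5% CO2. Compound + R5020 1 nM final, 16 hr. LiveBLAzer B/G FRET substrate, 2 hr RT; fluorescence intensity read.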

[8] = qHTS assay to identify small molecule agonists of the TGF-beta/Smad signaling pathway - cell viability counter screen (AID 1346829); note: nearly all actives have a fitted effect of over 45% in size
Procedure, shortened: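 After overnight seating at 37 C and 5% CO2, reporter cells got compounds for 5 hr and FRET substrate for 2 hr; cell viability then came from CellTiter-Glo luminescence.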

[9] = target: Thyrotropin-releasing hormone receptor (Homo sapiens) (UniProt P34981); assay: qHTS assay to identify small molecule antagonists of the thyrotropin-releasing hormone receptor (TRHR) signaling pathway (AID 1346877; active = well fitted inhibition curve with a large enough effect in the repeat runs, not every such curve was filed as active; inconclusive = weak or mixed curves; for activity, negative = inhibition: % is set by controls: 0 for no effect and ±100 for the full control effect)
Procedure, shortened: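 Antagonist mode: after a 5 min room-temperature compound exposure, cells were stimulated with 1 nM (final) TRH. Dye-loaded TRHR-HEK293 cells were used, and calcium-dependent fluorescence was followed for 3 min, with 15-point titrations run in triplicate.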
Potency is the fitted concentration of half-maximal effect; tags give direction and shape of the fitted curve or compound fluorescence and quenching.

Sequence of UniProt P06401 (P06401 whole entry, looked up): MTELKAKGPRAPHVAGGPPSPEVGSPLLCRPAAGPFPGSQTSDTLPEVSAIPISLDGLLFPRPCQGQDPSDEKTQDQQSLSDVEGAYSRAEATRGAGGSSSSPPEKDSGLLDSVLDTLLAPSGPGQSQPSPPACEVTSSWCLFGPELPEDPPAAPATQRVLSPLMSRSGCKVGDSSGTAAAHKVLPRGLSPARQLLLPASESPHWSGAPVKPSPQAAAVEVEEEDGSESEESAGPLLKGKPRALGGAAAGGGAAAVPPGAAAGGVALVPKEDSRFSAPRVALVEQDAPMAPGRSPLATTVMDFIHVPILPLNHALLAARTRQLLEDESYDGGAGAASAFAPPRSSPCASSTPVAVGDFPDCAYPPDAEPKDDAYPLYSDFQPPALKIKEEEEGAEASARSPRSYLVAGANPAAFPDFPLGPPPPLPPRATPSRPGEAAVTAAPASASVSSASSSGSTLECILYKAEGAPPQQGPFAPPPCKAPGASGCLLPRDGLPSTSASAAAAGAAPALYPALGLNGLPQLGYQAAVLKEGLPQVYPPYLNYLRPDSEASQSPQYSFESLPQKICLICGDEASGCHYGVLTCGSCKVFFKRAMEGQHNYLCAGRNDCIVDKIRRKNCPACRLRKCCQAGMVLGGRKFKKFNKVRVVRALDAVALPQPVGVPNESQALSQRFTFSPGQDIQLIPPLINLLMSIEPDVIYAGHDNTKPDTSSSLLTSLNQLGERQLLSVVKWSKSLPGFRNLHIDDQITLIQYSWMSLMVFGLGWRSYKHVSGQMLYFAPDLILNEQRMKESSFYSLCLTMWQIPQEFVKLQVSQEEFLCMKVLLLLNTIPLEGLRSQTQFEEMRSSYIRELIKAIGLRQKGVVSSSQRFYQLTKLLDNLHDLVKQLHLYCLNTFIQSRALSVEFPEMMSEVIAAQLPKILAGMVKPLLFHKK
Sequence of UniProt P34981 (P34981 whole entry, looked up): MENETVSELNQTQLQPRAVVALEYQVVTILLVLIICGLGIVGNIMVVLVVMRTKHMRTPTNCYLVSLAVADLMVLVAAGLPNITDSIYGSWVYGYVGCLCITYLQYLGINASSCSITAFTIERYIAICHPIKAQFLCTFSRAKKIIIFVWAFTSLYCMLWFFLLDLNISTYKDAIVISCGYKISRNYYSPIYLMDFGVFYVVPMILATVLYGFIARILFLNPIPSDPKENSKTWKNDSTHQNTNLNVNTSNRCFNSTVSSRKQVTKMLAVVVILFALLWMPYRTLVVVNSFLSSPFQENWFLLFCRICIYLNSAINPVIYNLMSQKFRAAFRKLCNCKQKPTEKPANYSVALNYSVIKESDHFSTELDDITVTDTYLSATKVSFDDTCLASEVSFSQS

SMILES: c1ccc(Nc2cccc3ccccc23)cc1
- Potency [1]: inactive
- Potency [2]: inconclusive: 55.7 µM [cytotoxic, single point] and inconclusive: 61.7 µM [cytotoxic, partial curve, poor fit]
- Potency [3]: inconclusive: 62.5 µM
- Potency [4]: inconclusive: 69.5 µM [cytotoxic] and inconclusive: 68.6 µM [cytotoxic, single point]

SMILES: CC(O)C(=O)O (configuration not stated)
- Potency [5]: inconclusive: 0.601 µM [cytotoxic, single point]

SMILES: CCCCCCCCCC
- Potency [5]: inconclusive: 2.45 µM [cytotoxic, single point]

SMILES: O=C1OC(=O)c2cc(-c3ccc4c(c3)C(=O)OC4=O)ccc21
- Potency [5]: inconclusive: 61.1 µM [cytotoxic, partial curve]

SMILES: CC(=O)OCCOC(C)=O
- Potency [1]: inconclusive: 6.84 µM [cytotoxic, single point]

SMILES: CN1CCC[C@@H]1CCO[C@](C)(c1ccccc1)c1ccc(Cl)cc1
- Potency [1]: active: 21.1 µM
- Potency [5]: active: 8.41 µM
- Potency [6]: inactive

SMILES: O=C(O)c1ccc(S(=O)(=O)N(Cl)Cl)cc1
- Potency [1]: inactive
- Potency [6]: inactive

SMILES: Nc1cc(Cl)c([N+](=O)[O-])cc1O
- Potency [7]: inconclusive: 27.1 µM [falling, partial curve]
- Potency [4]: inconclusive: 60.6 µM [cytotoxic, partial curve]

SMILES: CC(C)(C)CC(C)(C)c1ccc(OCCOCC[N+](C)(C)Cc2ccccc2)cc1
- Potency [1]: active: 54.4 µM and inconclusive: 33.5 µM [cytotoxic, single point]
- Potency [5]: active: 48.5 µM and inconclusive: 13.3 µM [cytotoxic, full curve]
- Potency [2]: active: 48.9 µM and inconclusive: 9.52 µM [cytotoxic, partial curve]
- Potency [8]: active: 43.6 µM and inconclusive: 10.7 µM [cytotoxic, partial curve, poor fit]

SMILES: CC1=C(/C=C/C(C)=C/C=C/C(C)=C/C(=O)Nc2ccc(O)cc2)C(C)(C)CCC1
- Potency [1]: inconclusive: 31.4 µM [cytotoxic, partial curve, poor fit] and inconclusive: 18.8 µM [cytotoxic, partial curve, poor fit]
- Potency [5]: inconclusive: 70.3 µM [cytotoxic, single point] and inconclusive: 23.7 µM [cytotoxic, single point]
- Potency [2]: inconclusive: 26.8 µM [cytotoxic, single point]
- Potency [8]: inactive and inconclusive: 21.3 µM [cytotoxic, partial curve]
- activity, negative = inhibition [3]: inconclusive: -13.6%
- Potency [4]: active: 49.8 µM and active: 26.6 µM

SMILES: CCCCCCCCCCCCCC(=O)OC(C)C
- Potency [1]: inconclusive: 3.35 µM [cytotoxic, single point]

SMILES: COc1cccc(-c2ccc(/C=C\CN3CCCCCC3)cc2Cl)c1
- activity change, negative = inhibition [7]: inconclusive: -43.1%
- activity, negative = inhibition [3]: inconclusive: -25.1%

SMILES: CC(C)CCCCCCc1ccc(O)cc1
- Potency [1]: active: 6.22 µM and inconclusive: 61.1 µM [cytotoxic]
- Potency [5]: active: 4.94 µM
- Potency [2]: inconclusive: 39.6 µM [cytotoxic, partial curve] and inconclusive: 49 µM [cytotoxic, single point]
- Potency [8]: inconclusive: 44.4 µM [cytotoxic, partial curve]
- Potency [6]: inconclusive: 49.8 µM [falling, single point]
- Potency [9]: inconclusive: 30.7 µM [inhibitor, partial curve, poor fit]
- Potency [3]: inconclusive: 22.3 µM [inhibitor]
- Potency [4]: inconclusive: 68.6 µM [cytotoxic]

SMILES: CCCCCCCCCC[N+](C)(CCCCCCCCCC)CCC[Si](OC)(OC)OC
- Potency [1]: inconclusive: 68.6 µM [cytotoxic]
- Potency [5]: active: 24.3 µM
- Potency [2]: inconclusive: 43.6 µM [cytotoxic, partial curve]
- Potency [8]: inconclusive: 43.6 µM [cytotoxic, partial curve]
- Potency [4]: inconclusive: 68.6 µM [cytotoxic, single point]

SMILES: CCCCCCCCCCCCCCNCCO
- Potency [1]: inconclusive: 13.3 µM [cytotoxic, full curve]
- Potency [5]: inconclusive: 7.5 µM [cytotoxic, full curve]
- Potency [6]: inactive

SMILES: CCCCCCCCCCCCOC(=O)c1cc(O)c(O)c(O)c1
- Potency [1]: active: 54.2 µM and inconclusive: 68.6 µM [cytotoxic, single point]
- Potency [5]: active: 60.9 µM and inconclusive: 77 µM [cytotoxic, single point]
- Potency [8]: active: 61.4 µM
- Potency [6]: inconclusive: 61.4 µM
- Potency [3]: inconclusive: 48.8 µM [cytotoxic, partial curve]
- activity, negative = inhibition [3]: inconclusive: -32.2%

SMILES: CCCCOCCOCCOCc1cc2c(cc1CCC)OCO2
- Potency [1]: inconclusive: 27.6 µM [rising, single point]

SMILES: Cn1cnc2c1c(=O)[nH]c(=O)n2C
- Potency [1]: inactive
- Potency [6]: inactive

SMILES: CN1CCN(CCCN2c3ccccc3Sc3ccc(Cl)cc32)CC1
- Potency [1]: active: 21.1 µM
- Potency [5]: inconclusive: 11.9 µM [cytotoxic, partial curve]
- Potency [4]: inconclusive: 23.7 µM [cytotoxic, partial curve]

SMILES: COCCCN
- Potency [1]: inactive

SMILES: CCN(CC)CCOc1ccc(/C(=C(\Cl)c2ccccc2)c2ccccc2)cc1
- Potency [1]: inconclusive: 55.6 µM [cytotoxic, single point] and inconclusive: 33.5 µM [cytotoxic]
- Potency [5]: inconclusive: 17.6 µM [cytotoxic, partial curve, poor fit] and inconclusive: 15 µM [cytotoxic, partial curve, poor fit]
- Potency [2]: inconclusive: 35.4 µM [cytotoxic, partial curve]
- Potency [8]: inconclusive: 44.6 µM [cytotoxic] and inconclusive: 26.8 µM [cytotoxic, single point]
- activity, negative = inhibition [3]: inconclusive: -25.6% [at 35.3 µM]
- Potency [4]: active: 39.4 µM and active: 26.6 µM

SMILES: CCCNC(=O)NS(=O)(=O)c1ccc(Cl)cc1
- Potency [1]: inconclusive: 2.98 µM [cytotoxic, single point]
- Potency [5]: inconclusive: 0.237 µM [cytotoxic, partial curve, poor fit]
- activity, negative = inhibition [3]: inconclusive: -19% [at 35.3 µM]

SMILES: COc1ccc(OC)cc1
- Potency [5]: inactive

SMILES: CCN(CC)CCOC(=O)c1ccc(N)cc1
- Potency [1]: inconclusive: 25.7 µM [cytotoxic, partial curve, poor fit]

SMILES: O=C(O[C@@H]1Cc2c(O)cc(O)cc2O[C@@H]1c1cc(O)c(O)c(O)c1)c1cc(O)c(O)c(O)c1
- Potency [7]: inactive
- activity, negative = inhibition [3]: inconclusive: -7.24% and inconclusive: -2.01%
- Potency [4]: inconclusive: 58.9 µM [cytotoxic, partial curve]

SMILES: COc1ccc(N)c(C)c1
- Potency [5]: inconclusive: 27.3 µM [cytotoxic, single point]

SMILES: O=C(O)c1ccccc1C(c1ccc(O)cc1)c1ccc(O)cc1
- Potency [1]: inconclusive: 77 µM [cytotoxic, partial curve, poor fit]
- Potency [5]: inactive
- Potency [2]: inconclusive: 1.95 µM [cytotoxic, full curve]
- Potency [8]: inconclusive: 1.38 µM [cytotoxic, full curve, poor fit]
- Potency [6]: inconclusive: 4.91 µM [rising, full curve]
- Potency [3]: inconclusive: 4.37 µM [rising, full curve]
- Potency [4]: inconclusive: 1.58 µM [cytotoxic, full curve]

SMILES: NC(N)=NC(N)=NCCc1ccccc1
- Potency [7]: inconclusive: 29.8 µM [falling, partial curve, poor fit]
- Potency [4]: inconclusive: 22.4 µM [cytotoxic, partial curve] and inconclusive: 24.3 µM [cytotoxic, full curve] and inconclusive: 26.6 µM [cytotoxic, partial curve]

SMILES: CCCCC(CC)CN1CN(CC(CC)CCCC)CC(C)(N)C1 (configuration not stated)
- Potency [5]: inconclusive: 37.6 µM [cytotoxic, single point]

SMILES: CCN(CC)CCOC(=O)C1(C2CCCCC2)CCCCC1
- Potency [1]: inconclusive: 29.8 µM [cytotoxic, single point]
- Potency [5]: inconclusive: 29.8 µM [cytotoxic, single point]
- Potency [2]: inconclusive: 26.8 µM [cytotoxic, single point]
- Potency [8]: inconclusive: 23.9 µM [cytotoxic, partial curve, poor fit]
- Potency [4]: inconclusive: 33.5 µM [cytotoxic, single point]

SMILES: COC(=O)C1=C(C)NC(C)=C(C(=O)OC)C1c1ccccc1[N+](=O)[O-]
- Potency [1]: inactive
- Potency [5]: inconclusive: 77 µM [rising, single point]
- activity, negative = inhibition [3]: inconclusive: -1.82%

SMILES: COC(=O)[C@H](Cc1ccccc1)NC(=O)[C@@H](N)CC(=O)O (H-Asp-Phe-OMe)
- Potency [9]: inactive

SMILES: C#C[C@]1(O)CC[C@H]2[C@@H]3CCC4=CC(=O)CC[C@@H]4[C@H]3CC[C@@]21CC
- Potency [6]: inconclusive: 24.5 µM [rising, partial curve]
- activity, negative = inhibition [3]: inconclusive: -10.9%
- Potency [4]: inconclusive: 77 µM [cytotoxic, partial curve, poor fit]

SMILES: Clc1ccc(C(c2ccccc2Cl)C(Cl)Cl)cc1 (configuration not stated)
- Potency [5]: inconclusive: 68.6 µM [cytotoxic, single point] and inconclusive: 33.5 µM [cytotoxic]
- Potency [6]: inactive
- Potency [4]: inconclusive: 68.6 µM [cytotoxic, single point]
